The text below walks through data of publication PMC4336329 (PLoS ONE, 2015).

Among all 310,000 compounds or so, about 2,200 (0.71%) showed an effect of 50% or more. Effects have a minus sign here. The list shows a part of the results.

In this experiment the target is human ether-à-go-go-related gene (hERG) potassium channel (human, UniProt Q12809). The experiment in a line: primary screen, population patch clamp on CHO cells stably expressing hERG.
Chain of human ether-à-go-go-related gene (hERG) potassium channel (Q12809 whole entry, looked up): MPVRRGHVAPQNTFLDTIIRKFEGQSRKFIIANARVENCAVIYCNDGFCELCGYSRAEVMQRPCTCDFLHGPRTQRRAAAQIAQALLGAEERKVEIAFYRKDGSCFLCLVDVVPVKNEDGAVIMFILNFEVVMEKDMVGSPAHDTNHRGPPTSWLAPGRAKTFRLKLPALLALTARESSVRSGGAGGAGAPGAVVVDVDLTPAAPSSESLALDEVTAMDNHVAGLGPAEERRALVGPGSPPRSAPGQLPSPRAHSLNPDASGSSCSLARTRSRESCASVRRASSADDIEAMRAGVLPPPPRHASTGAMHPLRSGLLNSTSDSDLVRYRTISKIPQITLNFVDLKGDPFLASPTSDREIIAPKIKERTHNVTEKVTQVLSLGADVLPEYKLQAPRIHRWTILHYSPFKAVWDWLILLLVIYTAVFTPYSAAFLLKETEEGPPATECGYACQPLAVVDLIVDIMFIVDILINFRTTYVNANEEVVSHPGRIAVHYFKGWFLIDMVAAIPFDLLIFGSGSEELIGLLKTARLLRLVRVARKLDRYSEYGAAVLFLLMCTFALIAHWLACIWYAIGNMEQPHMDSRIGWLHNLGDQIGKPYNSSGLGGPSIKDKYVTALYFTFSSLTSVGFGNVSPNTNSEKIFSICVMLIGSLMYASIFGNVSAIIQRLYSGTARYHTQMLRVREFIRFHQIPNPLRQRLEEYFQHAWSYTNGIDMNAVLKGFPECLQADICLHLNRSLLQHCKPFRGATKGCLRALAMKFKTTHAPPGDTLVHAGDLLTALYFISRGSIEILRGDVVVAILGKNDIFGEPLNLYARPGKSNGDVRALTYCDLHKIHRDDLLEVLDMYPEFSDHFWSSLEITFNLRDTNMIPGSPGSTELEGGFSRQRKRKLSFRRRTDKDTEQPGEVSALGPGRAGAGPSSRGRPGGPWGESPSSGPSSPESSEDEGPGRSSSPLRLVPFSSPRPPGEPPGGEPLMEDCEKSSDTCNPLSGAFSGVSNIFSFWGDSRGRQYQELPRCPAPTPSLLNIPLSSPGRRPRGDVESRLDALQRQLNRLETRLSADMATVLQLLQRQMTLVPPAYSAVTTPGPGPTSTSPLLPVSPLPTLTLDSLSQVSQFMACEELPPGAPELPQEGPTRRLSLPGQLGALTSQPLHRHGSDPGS
Consider `CN1CC(=O)N(C)c2ncn(Cc3ccccc3)c2C1=O`, for which the “hERG current change (%, negative = inhibition) at 1uM” value is on record as 9.16%.
The result for `O=C(Nc1nnc(CCS(=O)(=O)c2ccc(Br)cc2)s1)c1ccc([N+](=O)[O-])cc1` reads -0.413%; that for `CCN(CC)S(=O)(=O)c1ccc(C)c(N=C=S)c1`, 11.2%.
For `O=S1(=O)CC2NC(=S)N(c3cccc(Br)c3)C2C1` (centres unmarked), the “hERG current change (%, negative = inhibition) at 1uM” value came out at 13.8%.
To `N#C/C(=C(O)\C=C\c1ccccc1)c1nc2ccccc2[nH]1` belongs 12.5%; to `COc1ccc2nc(NC(=O)Cn3cnc4ccccc4c3=O)sc2c1`, 10.5%; to `CCOC(=O)C1CCN(S(=O)(=O)c2c[nH]c(=O)[nH]c2=O)CC1`, -11.5%.
Turning to `NNC(=S)Nc1ccc(S(=O)(=O)N2CCOCC2)cc1`, the “hERG current change (%, negative = inhibition) at 1uM” value was 12.3%.
To `CC(=O)Sc1nc(-c2ccccc2)[nH]c1S(=O)(=O)c1ccc(C)cc1` belongs 0.575%; to `COc1cc2c(cc1OC)/C(=C/c1ccc(Br)cc1)C(=O)OC2`, 6.28%.
For `Cc1cc(=O)oc2cc(OCCSCCN3CCOCC3)ccc12`, the “hERG current change (%, negative = inhibition) at 1uM” value stood at 13%.
Consider `COc1ccc(NC(=O)CN2CCN(CC(=O)Nc3ccccc3Cl)CC2)c(OC)c1`, for which the “hERG current change (%, negative = inhibition) at 1uM” value is given as -48%.
To `COc1ccc(NC2CC(=O)NC2=O)cc1` (centres unmarked) belongs 10.3%.
To `CC1=C(/C=N/Nc2ccc([N+](=O)[O-])cc2[N+](=O)[O-])C(C)(C)CCC1` belongs -2.48%; to `CCOC(=O)N1CCN(S(=O)(=O)N2CCCC(C(=O)NCCc3ccc(OCC)c(OCC)c3)C2)CC1` (centres unmarked), 3.78%.
The result for `C/C(=N\NC(=O)c1ccccc1O)c1c(O)cc(C)oc1=O` reads -7.39%.
On to `CN(NC(=O)Nc1ccc(Cl)cc1)c1ncc(C(F)(F)F)cc1Cl`, for which the “hERG current change (%, negative = inhibition) at 1uM” value stood at 18.2%.
To `COc1ccc(C(=O)CN2CCN(c3ccc(Cl)cc3)CC2)cc1OC` belongs -4.47%; to `C[C@@H](NC(=O)[C@@H]1Cc2ccccc2CN1C(=O)OC(C)(C)C)C(=O)NCC1CCCO1` (some centres unmarked), 11.5%; to `CC(=O)c1ccc(OCC(O)CN2CCN(c3ccccn3)CC2)cc1.Cl` (centres unmarked), -7.47%.
To `Cc1cc(C2(c3ccc(O)c(C)c3)OC(=O)c3ccccc32)ccc1O` belongs 1.18%.
The result for `CCC(C)NC(=O)C1CCC(=O)N(c2cc(OC)c(OC)c(OC)c2)C1c1ccc(OC)cc1` (centres unmarked) reads 14.8%.
For the compound `CSc1ccccc1C(=O)C1CCCN(S(=O)(=O)c2c(C)noc2C)C1` (centres unmarked), the “hERG current change (%, negative = inhibition) at 1uM” value was 7.34%.
The result for `COc1ccc(-c2cc3ccccc3oc2=O)cc1NC(=S)NC(=O)c1ccc2c(c1)OCCO2` reads 7.18%; that for `CN1CCN(C(=O)c2ccccc2NS(=O)(=O)c2ccc(F)cc2)CC1`, 11.4%; that for `COc1ccc(-c2ccnc3c(Br)c(C)nn23)cc1`, 14.8%.
For `CC(C)NC(=O)COc1ccc2c(c1)C(=O)CC(C)(C)O2`, the “hERG current change (%, negative = inhibition) at 1uM” value was 16.3%.
The result for `COc1ccc(-c2cc(=O)oc3cc(OCC(=O)NCCN4CCOCC4)ccc23)cc1` reads 8.32%.
The result for `O=C(COc1ccc2ccc(=O)oc2c1)NC1CCN(Cc2ccccc2)CC1` reads -34.1%; that for `COc1cc(NC(=O)CN2CCN(c3ccccc3F)CC2)cc(OC)c1`, 7.72%; that for `O=C(COc1ccc(Cl)cc1[N+](=O)[O-])N1CCCCC1`, -2.84%.
To `O=C1Nc2ccc(S(=O)(=O)N3CCCC3C(=O)O)c3cccc1c23` (centres unmarked) belongs 19.5%; to `COc1cccc(CN(C)C(=O)C2CCC(=O)N(Cc3cccc(F)c3)C2)c1` (centres unmarked), 16.5%.
On to `CCCc1cc(-n2ccnc2C)n2c(nc3ccccc32)c1C#N`, for which the “hERG current change (%, negative = inhibition) at 1uM” value came to 6.9%.
The result for `O=[N+]([O-])c1cccc(C(=Nc2cccc(Cl)c2)NO)c1` reads 5.8%.
The result for `Cc1ccc(NC(=S)c2ccc3ccccc3n2)c(C)c1` reads 19.8%; that for `CCOc1ccccc1N1C(=O)CC(Sc2ncccc2C(=O)O)C1=O` (centres unmarked), 16.3%.
The result for `COc1cc(O)c(C(CCN2CCOCC2)c2ccc3c(c2)OCO3)c(OC)c1` (centres unmarked) reads -45.7%; that for `CC1=Nc2ccc(Br)cc2C(c2ccccc2)N1CC(=O)O` (centres unmarked), 17.4%; that for `COC(=O)c1cc2ccccc2n1Cc1ccc(Cl)nc1`, 12.1%.
On to `O=C(O)CN1C(=O)CC(Cc2ccccc2)C1=O` (centres unmarked), for which the “hERG current change (%, negative = inhibition) at 1uM” value is 13.3%.
The result for `CN(C)c1ccc(/C=C2\C(=N)N3C(=NC2=O)Sc2cc(S(C)(=O)=O)ccc23)cc1` reads 14.8%; that for `O=C1CC(NNc2nc3ccccc3s2)C(=O)N1c1ccccc1` (centres unmarked), 7.55%.
To `O=C(/C=C/c1ccc(Cl)cc1Cl)Nc1cccc(S(=O)(=O)NC2=NCCCCC2)c1` belongs 0.0084%.
